Some of the results follow.

This is an account of results in article PMC12820563, “FoxP3 forms a head-to-head dimer in vivo and stabilizes its multimerization on adjacent microsatellites”.

In this assay the target is T1, MBP-FoxP1dN (Mus musculus, UniProt P58462 326-579).
T1 sequence: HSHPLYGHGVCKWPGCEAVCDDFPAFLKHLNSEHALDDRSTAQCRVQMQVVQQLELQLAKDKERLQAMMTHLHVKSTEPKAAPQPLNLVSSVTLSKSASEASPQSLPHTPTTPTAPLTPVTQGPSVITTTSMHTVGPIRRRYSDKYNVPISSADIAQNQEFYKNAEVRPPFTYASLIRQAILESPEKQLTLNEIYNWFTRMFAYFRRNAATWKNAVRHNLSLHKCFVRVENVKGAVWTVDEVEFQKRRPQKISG
Nature of the assay: PD-seq (MBP pull-down with sequencing); 20 mM Tris-HCl pH 7.5, 100 mM NaCl, 1.5 mM MgCl2, 0.4 uM protein, 0.1 uM dsDNA library, 30 min, room temperature, amylose pull-down; high values mean tight binding. The settings on record: protein: recombinant; tags: His6-MBP; chain copies: 2; dsDNA, one strand shown. In short, it runs like this: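 The N-terminus-lacking fragment of mouse FoxP3 or FoxP1 carried a His6-MBP tag and was expressed in E. coli. At 0.4 µM it was incubated with 0.1 µM Klenow-filled degenerate double-stranded DNA library for 30 min at room temperature in Tris pH 7.5 buffer with NaCl and MgCl2, and complexes were caught on amylose resin, washed three times, released with proteinase K, PCR-barcoded and Illumina-sequenced. Binding is reads-per-million enrichment of pull-down over input with replicates pooled.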
As to “GATGATTGTTCTCCCAGCTGATGAATTGATTTGGTCGAGTAAACAAATTTTCCTAATCTTTCTGTTCAAGCGCCATCTAC”, the binding signal is 1.13 RPM ratio (pull-down/input).

Consider “GATGATTGTTCTCCCAGCTGATGAATTGAATGGTTCGAGTAAACAAATTTTCCTAATCTTTCTGTTCAAGCGCCATCTAC”, for which the binding signal is 0.852 RPM ratio (pull-down/input).

In the case of “GATGATTGTTCTCCCAGCTGATGAATTTCTTCCCTCGAGTAAACAAATTTTCCTAATCTTTCTGTTCAAGCGCCATCTAC”, the binding signal is 0.885 RPM ratio (pull-down/input).

For the sequence “GATGATTGTTCTCCCAGCTGATGAATTGGAAGCTTCGAGTAAACAAATTTTCCTAATCTTTCTGTTCAAGCGCCATCTAC”, the binding signal is 0.764 RPM ratio (pull-down/input).

“GATGATTGTTCTCCCAGCTGATGAATTCACCAGATCGAGTAAACAAATTTTCCTAATCTTTCTGTTCAAGCGCCATCTAC”: the binding signal was 0.9 RPM ratio (pull-down/input).

As to “GATGATTGTTCTCCCAGCTGATGAATTAAAAACCTCGAGTAAACAAATTTTCCTAATCTTTCTGTTCAAGCGCCATCTAC”, the binding signal is 0.874 RPM ratio (pull-down/input).

Turning to “GATGATTGTTCTCCCAGCTGATGAATTCGTTCATTCGAGTAAACAAATTTTCCTAATCTTTCTGTTCAAGCGCCATCTAC”, the binding signal is 0.858 RPM ratio (pull-down/input).

“GATGATTGTTCTCCCAGCTGATGAATTAGATATCTCGAGTAAACAAATTTTCCTAATCTTTCTGTTCAAGCGCCATCTAC”: the binding signal is 0.887 RPM ratio (pull-down/input).

Regarding “GATGATTGTTCTCCCAGCTGATGAATTTAGGTCATCGAGTAAACAAATTTTCCTAATCTTTCTGTTCAAGCGCCATCTAC”, the binding signal is 0.942 RPM ratio (pull-down/input).

As for “GATGATTGTTCTCCCAGCTGATGAATTTGACGACTCGAGTAAACAAATTTTCCTAATCTTTCTGTTCAAGCGCCATCTAC”, the binding signal is 0.806 RPM ratio (pull-down/input).

Consider “GATGATTGTTCTCCCAGCTGATGAATTCCAGGTCTCGAGTAAACAAATTTTCCTAATCTTTCTGTTCAAGCGCCATCTAC”, for which the binding signal was 0.749 RPM ratio (pull-down/input).

For “GATGATTGTTCTCCCAGCTGATGAATTTGGTGGTTCGAGTAAACAAATTTTCCTAATCTTTCTGTTCAAGCGCCATCTAC”, the binding signal is 0.899 RPM ratio (pull-down/input).

Take “GATGATTGTTCTCCCAGCTGATGAATTCCTGGGTTCGAGTAAACAAATTTTCCTAATCTTTCTGTTCAAGCGCCATCTAC”: the binding signal is 0.781 RPM ratio (pull-down/input).

For “GATGATTGTTCTCCCAGCTGATGAATTTATGCATTCGAGTAAACAAATTTTCCTAATCTTTCTGTTCAAGCGCCATCTAC”, the binding signal is 1.69 RPM ratio (pull-down/input).

Consider “GATGATTGTTCTCCCAGCTGATGAATTAGTCTTATCGAGTAAACAAATTTTCCTAATCTTTCTGTTCAAGCGCCATCTAC”, for which the binding signal was 0.994 RPM ratio (pull-down/input).

“GATGATTGTTCTCCCAGCTGATGAATTGCTGGAATCGAGTAAACAAATTTTCCTAATCTTTCTGTTCAAGCGCCATCTAC”: the binding signal was 1.07 RPM ratio (pull-down/input).

For “GATGATTGTTCTCCCAGCTGATGAATTTTCATTTTCGAGTAAACAAATTTTCCTAATCTTTCTGTTCAAGCGCCATCTAC”, the binding signal was 1.06 RPM ratio (pull-down/input).

Consider “GATGATTGTTCTCCCAGCTGATGAATTGCTAGTTTCGAGTAAACAAATTTTCCTAATCTTTCTGTTCAAGCGCCATCTAC”, for which the binding signal was 1.12 RPM ratio (pull-down/input).

Regarding “GATGATTGTTCTCCCAGCTGATGAATTTGACCGTTCGAGTAAACAAATTTTCCTAATCTTTCTGTTCAAGCGCCATCTAC”, the binding signal was 0.748 RPM ratio (pull-down/input).

For the sequence “GATGATTGTTCTCCCAGCTGATGAATTACCTTCTTCGAGTAAACAAATTTTCCTAATCTTTCTGTTCAAGCGCCATCTAC”, the binding signal was 1.02 RPM ratio (pull-down/input).

Turning to “GATGATTGTTCTCCCAGCTGATGAATTTGTGCCCTCGAGTAAACAAATTTTCCTAATCTTTCTGTTCAAGCGCCATCTAC”, the binding signal was 0.999 RPM ratio (pull-down/input).

Take “GATGATTGTTCTCCCAGCTGATGAATTCCAATGGTCGAGTAAACAAATTTTCCTAATCTTTCTGTTCAAGCGCCATCTAC”: the binding signal was 0.818 RPM ratio (pull-down/input).

For “GATGATTGTTCTCCCAGCTGATGAATTGCCGGTTTCGAGTAAACAAATTTTCCTAATCTTTCTGTTCAAGCGCCATCTAC”, the binding signal was 0.955 RPM ratio (pull-down/input).

In the case of “GATGATTGTTCTCCCAGCTGATGAATTCAATGCCTCGAGTAAACAAATTTTCCTAATCTTTCTGTTCAAGCGCCATCTAC”, the binding signal was 0.901 RPM ratio (pull-down/input).

As to “GATGATTGTTCTCCCAGCTGATGAATTCGCGTTCTCGAGTAAACAAATTTTCCTAATCTTTCTGTTCAAGCGCCATCTAC”, the binding signal was 0.87 RPM ratio (pull-down/input).

For the sequence “GATGATTGTTCTCCCAGCTGATGAATTATTCTTTTCGAGTAAACAAATTTTCCTAATCTTTCTGTTCAAGCGCCATCTAC”, the binding signal is 1.17 RPM ratio (pull-down/input).

For the sequence “GATGATTGTTCTCCCAGCTGATGAATTAGTAAGATCGAGTAAACAAATTTTCCTAATCTTTCTGTTCAAGCGCCATCTAC”, the binding signal is 0.937 RPM ratio (pull-down/input).

As for “GATGATTGTTCTCCCAGCTGATGAATTCGGTGAATCGAGTAAACAAATTTTCCTAATCTTTCTGTTCAAGCGCCATCTAC”, the binding signal is 0.946 RPM ratio (pull-down/input).

For the sequence “GATGATTGTTCTCCCAGCTGATGAATTTCAACACTCGAGTAAACAAATTTTCCTAATCTTTCTGTTCAAGCGCCATCTAC”, the binding signal is 0.901 RPM ratio (pull-down/input).

Take “GATGATTGTTCTCCCAGCTGATGAATTTTAAAGATCGAGTAAACAAATTTTCCTAATCTTTCTGTTCAAGCGCCATCTAC”: the binding signal is 0.92 RPM ratio (pull-down/input).

Regarding “GATGATTGTTCTCCCAGCTGATGAATTGCCCTGGTCGAGTAAACAAATTTTCCTAATCTTTCTGTTCAAGCGCCATCTAC”, the binding signal is 0.807 RPM ratio (pull-down/input).
